Out of some 52,000 compounds screened, about 1,700 (3.3%) were called active. No stated cut-off is given here; in the data, active means survival mostly below about 52% (no sharp cut-off); inactive means mostly above about 56%. The list shows a part of the results.
Tested on: Wild type
Test: growth inhibition of S. aureus wild type versus tarO mutant, primary screen, teichoic acid synthesis inhibitors, RN4220, OD600 (AID 463173)
Settings: S. aureus RN4220 wild type/DeltatarO growth, OD600, 18 h, active compounds read low, screened at 18.75 µg/mL (by protocol)

| Structure (SMILES) | survival |
| --- | --- |
| O=C(CN1C(=O)COc2ccc(S(=O)(=O)NC3CCCC3)cc21)NCc1ccc(Cl)cc1 | inactive: 68% |
| CCC(CC)c1nnc(NC(=O)CS(=O)(=O)Cc2ccccc2)s1 | inactive: 105% |
| COc1ccc(OC)c2sc(N3CCN(C(=O)c4ccco4)CC3)nc12 | inactive: 76% |
| CN(C)NC1CCS(=O)(=O)C1 (centres undefined) | inactive: 113% |
| Cc1c(C(=O)N2CCC(C)CC2)c(S(=O)(=O)N(Cc2ccccc2)C(C)(C)C)c(C)n1C | inactive: 76% |
| CN1CCN(C(=O)C(=O)Nc2c3c(nn2-c2ccc(Cl)cc2)CSC3)CC1 | inactive: 71% |
| Cn1c(=O)c(C(=O)O)nn(-c2ccccc2)c1=O | inactive: 81% |
| Cc1ccc(NC(=O)Nc2nnc(N3CCCC3)s2)cc1C | inactive: 85% |
| Cc1nn2c(=O)cc(COC(=O)c3cccc(NC(=O)COc4ccccc4C)c3)nc2s1 | inactive: 86% |
| CCOCCCn1c(=N)c(C(=O)NCc2cccnc2)cc2c(=O)n3ccccc3nc21 | inactive: 70% |
| CCN(CC)C(=O)c1ccc2c(c1)N(Cc1ccc(C(F)(F)F)cc1)C(=O)c1ccccc1S2 | inactive: 81% |
| Cc1ccc(N2C(=O)CCSC23C(=O)N(Cc2ccccc2)c2ccccc23)cc1 (centres undefined) | inactive: 72% |
| CCOc1ccccc1CNC(=O)C1CCCN(c2nnc(C)c3c(C)n(-c4ccccc4)nc23)C1 (centres undefined) | inactive: 71% |
| COc1cccc(CNC(=O)CSC2=Nc3ccccc3N=C(c3ccc(F)cc3)C2)c1 | inactive: 128% |
| COc1cccc(CN(Cc2ccco2)C(c2nnnn2Cc2ccc(F)cc2)C(C)C)c1 (centres undefined) | inactive: 106% |
| COC(=O)c1ccc(C(=O)OC)c(NC(=O)CN(c2ccccc2)S(=O)(=O)N(C)C)c1 | inactive: 95% |
| CCOC(=O)C1CCN(C(=O)Cn2nc(CC)n3c(cc4sccc43)c2=O)CC1 | inactive: 121% |
| O=C(NCc1ccccc1Cl)c1ccc(CS(=O)(=O)c2ccc(Br)cc2)o1 | inactive: 130% |
| Cn1nnnc1SCCCNCc1ccccc1OCc1ccc(Cl)cc1 | inactive: 96% |
| COc1ccc(Nc2ncnc3sc4c(c23)CCCC4)cc1 | inactive: 73% |
| Cc1cc(C)c(NC(=O)Cn2c(=O)n(CCC(=O)N3CCc4ccccc4C3)c(=O)c3ccccc32)c(C)c1 | inactive: 83% |
| CCN(CC)S(=O)(=O)c1ccc2c(c1)N(CC(=O)N1CCN(c3cccc(C)c3C)CC1)C(=O)CO2 | inactive: 128% |
| Clc1ccc(-n2ncc3c(NC4CCCC4)ncnc32)cc1 | inactive: 80% |

| Structure (SMILES) | survival |
| --- | --- |
| O=C(CSc1ncccn1)NN=C1CCCCCC1 | inactive: 93% |
| Cc1c(CNC2CCCCC2)c(C(=O)O)c(C)n1Cc1ccc(Cl)cc1 | inactive: 96% |
| Cc1ccc(Cn2c3ccccc3c3cnn(CC(=O)Nc4cc(Cl)ccc4C)c(=O)c32)cc1 | inactive: 77% |
| CCC(=O)Nc1sc2c(c1C#N)CC(C)(C)NC2(C)C | inactive: 105% |
| CCOc1cc(CNS(=O)(=O)c2ccc3c(c2)C(C)(C)C(=O)N3)cc(OCC)c1OCC | inactive: 88% |
| COc1ccc(N2CCN(C(=O)c3cccn3-c3nnc(N4CCCC4)s3)CC2)cc1 | inactive: 95% |
| O=C(CSc1n[nH]c(-c2ccccc2Cl)n1)NCCc1ccccc1 | inactive: 72% |
| CCc1nn(CCCC(=O)NCc2ccc(OC(C)C)cc2)c(=O)c2cc3occc3n12 | inactive: 89% |
| COc1ccc(C)cc1NC(=O)Nc1nnc(N2CCCCC2)s1 | inactive: 70% |
| CCOC(=O)C1CCCN(c2nc3c(S(=O)(=O)c4ccc(CC)cc4)nnn3c3ccc(Cl)cc23)C1 (centres undefined) | inactive: 89% |
| CC(NC(=O)Cn1ccc2cc(S(=O)(=O)N3CCCCCC3)ccc21)c1ccccc1 (centres undefined) | inactive: 76% |
| O=C(CSc1nnc(Cc2csc(Nc3cccc(Cl)c3)n2)o1)c1ccc2c(c1)OCCO2 | inactive: 88% |
| CCN(C(=O)CCc1nc(-c2ccc(C)cc2)no1)c1cccc(C(F)(F)F)c1 | active: 0% |
| COc1ccc(C(=O)Nc2ccc(S(=O)(=O)Nc3cc(C)nc(C)n3)cc2)cc1 | inactive: 77% |
| O=C(CCS(=O)(=O)c1cc2c(cc1Cl)NC(=O)CO2)NCCc1ccccc1 | inactive: 87% |
| CCCS(=O)(=O)N1CC(=O)N(c2cccc(F)c2)C(C)(C(=O)NC2CCCCCC2)C1 (centres undefined) | inactive: 75% |
| CCC(=O)N=c1sc2ccccc2n1-c1ccccc1 | inactive: 93% |
| CCc1ccc(NC(=O)CSc2nnc3[nH]c(=O)cc(-c4ccccc4)n23)cc1 | inactive: 143% |
| CCOC(=O)c1c(C)[nH]c(CCC(=O)Nc2ccccc2C(F)(F)F)c1C | inactive: 68% |
| CC(=O)N1c2ccccc2N(C)C(=O)C1(C)C | inactive: 105% |
| COC(=O)c1ccc2c(=O)n3nc(Nc4ccc(F)cc4F)sc3nc2c1 | inactive: 92% |
| COc1ccc(CN2CCc3c(c(=O)n4ncc(C(=O)N5CCN(c6ccccc6F)CC5)c4n3C)C2)cc1 | inactive: 78% |
| COc1cc(CNc2ccc3[nH]c(=O)[nH]c3c2)ccc1OCc1ccc(F)cc1Cl | inactive: 88% |

| Structure (SMILES) | survival |
| --- | --- |
| CCCCC1CCC(C(=O)N2CC(=O)Nc3ccc(C)cc3C2c2ccc(F)cc2)CC1 (centres undefined) | inactive: 51% |
| COc1ccc(Cn2ccc3nc(C)c(C(=O)N4CCN(c5cccc(OC)c5)CC4)cc3c2=O)cc1 | inactive: 71% |
| COc1ccc(NC(=O)c2c(NC(=O)C(F)(F)F)sc3c2CCCCC3)cc1 | active: -1% |
| CS(=O)(=O)N(Cc1ccccc1)c1ccc(C(=O)Nc2cccc(Cl)c2)cc1 | inactive: 66% |
| COc1ccc(CNC(=O)c2ccc3c(O)c(S(=O)(=O)c4ccccc4)c(=O)[nH]c3c2)cc1 | inactive: 90% |
| Cc1cccc(N2CCN(C(=O)c3nn(C)c4c3CS(=O)(=O)c3ccccc3-4)CC2)c1C | inactive: 85% |
| CC(=O)c1cccc(NC(=O)CN2C(=O)CCc3cc(S(=O)(=O)N4CCCCC4)ccc32)c1 | inactive: 82% |
| O=C(Nc1cccc(C(F)(F)F)c1)Nc1nnc(N2CCCCCC2)s1 | inactive: 89% |
| COCCCNC(=O)CN1C(=O)c2cccnc2Sc2ccccc21 | inactive: 82% |
| COc1ccccc1N1CCN(C(=O)c2cc(-c3ccc(C)c(F)c3)on2)CC1 | inactive: 92% |
| Cc1ccc(NC(=O)CSc2nc(-c3ccco3)cc(C(F)(F)F)n2)c(C)c1 | inactive: 85% |
| COc1cccc2cc(C(=O)Nc3ccc(CC(=O)O)cc3)c(=O)oc12 | inactive: 73% |
| CCN(CC)CCNC(=O)C(=O)Nc1c2c(nn1-c1ccc(F)cc1)CSC2 | inactive: 71% |
| COc1ccc(-c2cc(C(=O)Nc3sc4c(c3C(N)=O)CCCC4)no2)cc1 | inactive: 96% |
| CCCCN1CC(c2nc3ccccc3n2CCCCOc2cc(C)cc(C)c2)CC1=O (centres undefined) | active: 14% |
| Cc1ccn2c(NC3CCCCC3)c(C)nc2c1 | inactive: 101% |
| CCOc1ccc(S(=O)(=O)N2Cc3ccccc3CC2C(=O)Nc2ccc(NC(C)=O)cc2)cc1 (centres undefined) | inactive: 80% |
| CCCCN1C(=O)c2ccc(Br)cc2C1=O | inactive: 104% |
| Cc1cccc(NC(=O)CSc2nc3ccc(NC(=O)COc4ccccc4C)cc3s2)c1 | inactive: 79% |
| O=c1c2ccccc2ncn1-c1ccc(F)cc1 | inactive: 107% |
| O=C(NCc1ccc(Cl)cc1)C1CCN(c2nn3cc(-c4ccc(F)cc4)nc3s2)CC1 | inactive: 78% |
| Cc1c(C(=O)OCCOc2ccccc2)[nH]c2c1C(=O)CC(c1ccc(C(C)(C)C)cc1)C2 (centres undefined) | inactive: 78% |
| CCn1c2c(c(=O)n3ncc(C(=O)Nc4cc(Cl)ccc4OC)c13)CN(Cc1ccc(OC)cc1)CC2 | inactive: 72% |

| Structure (SMILES) | survival |
| --- | --- |
| CC1CN(C(=O)NCc2ccccc2)c2cc(Cl)ccc2O1 (centres undefined) | inactive: 89% |
| CCCNC(=O)CCC(=O)N1Cc2cccc(OC)c2Oc2ncccc21 | inactive: 74% |
| COc1ccc(NC(=O)c2nc(S(C)(=O)=O)ncc2N(Cc2ccc(C)cc2)Cc2ccco2)cc1Cl | inactive: 86% |
| COc1cccc(CNC(=O)c2cc(-c3ccc(Cl)s3)nc3ccccc23)c1 | inactive: 87% |
| COc1ccc(Cl)cc1NC(=O)c1cc(-c2ccc3c(c2)OCO3)on1 | inactive: 81% |
| COc1ccc(C)cc1NC(=O)N1CCN(S(=O)(=O)c2ccc3c(ccn3C)c2)CC1 | inactive: 22% |
| CCCCc1cc(=O)oc2cc(C)c3c(C(C)(C)C)coc3c12 | inactive: 108% |
| Cc1ncc(CO)c2c1Oc1nc(-c3ccc(Cl)cc3)nc(SCC(=O)N3CCCCC3)c1C2 | inactive: 79% |
| Cc1cccc(CSc2nc3c(sc4ccccc43)c(=O)n2CCC(=O)NC(C)C)c1 | inactive: 129% |
| O=C(Nc1nccs1)c1ccc(-c2ccc(Cl)cc2)o1 | inactive: 114% |
| Cc1ccc(S(=O)(=O)c2cnc(SCC(=O)Nc3cccc(Cl)c3)nc2N)cc1C | inactive: 73% |
| CCCN1CC=C2C(C#N)=C(N)C(C#N)(C#N)C(c3ccc(OCC(N)=O)cc3)C2C1 (centres undefined) | inactive: 99% |
| COc1ccc(C(CC(=O)O)NC(=O)c2cc3ccccc3oc2=O)cc1OC (centres undefined) | inactive: 69% |
| CSc1ccc(NC(=O)C(C)N2CCN(C)CC2)cc1 (centres undefined) | inactive: 94% |
| CCN(CC)C(=O)Cn1cc(SCC(=O)Nc2cccc(F)c2)c2ccccc21 | inactive: 111% |
| CCOC(=O)c1cnc2c(C)cc(C)cc2c1Nc1cccc(C(=O)O)c1 | active: 23% |
| CCOCCCNC(=O)CN1C(=O)COc2ccc(S(=O)(=O)N3CCCCCC3)cc21 | inactive: 78% |
| Cc1[nH]c(=O)[nH]c(=O)c1NC(=O)CSc1nc2c(C)cccc2cc1C#N | inactive: 95% |
| Oc1ccc(Nc2nc3ccccc3n3cnnc23)cc1 | inactive: 78% |
| Cc1cccc(Cn2c(=O)n(Cc3ccc(C(=O)NC4CCN(Cc5ccccc5)CC4)cc3)c(=O)c3ccccc32)c1 | inactive: 80% |

From PubChem BioAssay AID463173 (ICCB-Longwood Screening Facility, Harvard Medical School, 2010)
